From PubChem BioAssay AID504832 (National Center for Advancing Translational Sciences (NCATS), 2011)
Where “and” joins values, the source holds several entries; their conditions need not be identical. Identical values can stand only once. Screen size: about 310,000 compounds; about 18,000 (5.8%) were called active. The shares of active, inactive and inconclusive entries below differ from those in the screen. The call rests on the fitted dose curve; in most records, active means well fitted inhibition curve with a large enough effect; inconclusive means small, poorly fitted or top-dose-only effect, or another doubt; inactive means no such curve, though single readings can be large or run the other way. No potency is given beside an inconclusive call; the fits are too rough.
On the % scale 0 is the no-effect control and ±100 the full control effect; potency means the concentration at half of the fitted maximal effect; tags describe the fitted curve by direction and shape.

Experiment: Primary qHTS for delayed death inhibitors of the malarial parasite plastid, 48 hour incubation
Conditions: P. falciparum luciferase growth in erythrocytes; series mostly up to 28.7 µM; activity change, negative = inhibition: at the top concentration
How it was run: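 In quantitative HTS format, infected erythrocytes bearing luciferase-reporter parasites were treated for a single generation at 37 C. Luminescence after adding detection reagent served as the growth measure.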
For Cc1cc(C)c2c(c1)-c1cc(C)nn1C(c1cccnc1)N2 (stereo not drawn), the Potency was inconclusive [inhibitor, single point]. With CCCN(CCC)Cc1c(C(=O)N/N=C/C(C)=C\c2ccccc2)nnn1-c1nonc1N the Potency was inconclusive [inhibitor, single point]. For Cc1cccc(Nc2nnc(C)c(=O)n2N)c1, the “activity change, negative = inhibition” value was inactive: -12%. With CCc1nc(SCC(=O)NNC(=O)c2ccc(OC)cc2)c2ccccc2n1 the “activity change, negative = inhibition” value was inactive: -16.5%. For COc1ccc(CNC(=O)COC(=O)c2ccc(C)c(S(=O)(=O)N3CCOCC3)c2)cc1OC, the Potency was inconclusive [inhibitor, partial curve]. For COc1cc(NC(=S)NCCc2ccc(S(N)(=O)=O)cc2)c(OC)cc1Cl, the activity change, negative = inhibition was inactive: 37.2% [at 5.75 µM]. For CCN1C(=O)c2cccc3c(NC(=O)C4CCCCC4)ccc1c23, the Potency was inconclusive [inhibitor, single point]. For COc1cccc(NC(=O)CSc2nnc(COc3ccc4c(c3)CCCC4)o2)c1, the Potency was inconclusive [inhibitor, partial curve, poor fit]. In the case of CCCCOc1ccc(C2C(C(=O)c3cccs3)=C(O)C(=O)N2CCN2CCOCC2)cc1 (stereo not drawn), the “activity change, negative = inhibition” value is reported as inactive: -2.69%. For Cc1ccc(C)c(N2CCN(CCCc3ccccc3)CC2)c1, the “activity change, negative = inhibition” value was inactive: 17.4%. For COC(=O)c1c(-c2c(Cl)cccc2Cl)noc1NC(=O)NN1CCCCC1, the Potency was active: 0.329 µM. In the case of Cc1cc(Nc2cc(Cl)cc(Cl)c2)nc(N)n1, the Potency is reported as active: 1.85 µM. For CC(=O)NN1C(=O)c2ccccc2NC1c1ccco1 (stereo not drawn), the “activity change, negative = inhibition” value was inactive: 1.21%. In the case of COc1ccc(C(Nc2ccc(S(=O)(=O)NCC3CCCO3)cc2)C(=O)NC(C)(C)C)cc1OC (stereo not drawn), the Potency is reported as inconclusive [inhibitor, single point]. In the case of Cc1ccc(-c2sc(C(=O)NN)c(C)c2C#N)cc1, the Potency is reported as inconclusive [inhibitor, partial curve]. In the case of NC(=O)N/N=C/c1ccc(-n2nncc2-c2ccc(Cl)cc2)cc1, the Potency is reported as inconclusive [inhibitor, partial curve]. In the case of Cc1ccc(S(=O)(=O)/C(C#N)=C/c2c(N3CCOCC3)nc3c(C)cccn3c2=O)cc1, the Potency is reported as active: 2.08 µM. In the case of COc1ccc2nc(NC(=O)CCN3C(=S)NC(C)(C)CC3C)sc2c1 (stereo not drawn), the “activity change, negative = inhibition” value is reported as inactive: 19.3%. For CC1(C)Cc2c(C#N)c(SCCC#N)nc(N3CCOCC3)c2CS1, the Potency was inconclusive [inhibitor, single point]. In the case of COc1nc(C)cc(C)c1S(=O)(=O)c1ccccc1, the Potency is reported as inconclusive [inhibitor, single point]. For Cc1nn(Cc2ccc([N+](=O)[O-])cc2)c(=O)n1-c1cccc(F)c1, the Potency was inconclusive [inhibitor, partial curve]. In the case of CCOC(=O)c1sc(=S)n(-c2ccc(Cl)cc2)c1C, the Potency is reported as active: 5.22 µM. In the case of CC1S/C(=N/N=C2CCC(C(C)(C)C)CC2)NC1=O (stereo not drawn), the “activity change, negative = inhibition” value is reported as inactive: -0.473%. In the case of FC(F)(F)c1cc(-c2ccccc2)nc2ncnn12, the Potency is reported as inconclusive [inhibitor, single point]. In the case of Cc1ccc(-n2nnnc2SCC(=O)c2c(N)n(C3CC3)c(=O)[nH]c2=O)cc1C, the “activity change, negative = inhibition” value is reported as inactive: -8.49%. In the case of Cc1ccc(OCCCn2ccnc2)c(Br)c1, the Potency is reported as inconclusive [inhibitor, partial curve]. For O=C(O)c1ccc(Cl)cc1NC(=O)C1CCCO1 (stereo not drawn), the “activity change, negative = inhibition” value was inactive: -2.73%. In the case of O=S(=O)(NCC1CCCO1)c1cnc(Cl)c(Br)c1 (stereo not drawn), the “activity change, negative = inhibition” value is reported as inactive: -24.8%. With COc1ccccc1-c1oc2ccccc2c1C#CC(C)(C)O the Potency was inconclusive [inhibitor, single point]. With Cc1ccc(CCNc2ccccc2C)cn1 the “activity change, negative = inhibition” value was inactive: 3.79%. For CC1(C)CC(=O)C=C(N2CCN(C3=CC(=O)CC(C)(C)C3)CC2)C1, the “activity change, negative = inhibition” value was inactive: 40.3%. With COc1cc(C2C3C(=O)N(Cc4ccccc4)C(=O)C3ON2c2ccccc2)cc(OC)c1O (stereo not drawn) the Potency was inconclusive [inhibitor, single point]. With CC1(OC(=O)c2cccs2)C(=O)C=C2C=C3CCCN3C=C2C1=O (stereo not drawn) the “activity change, negative = inhibition” value was inactive: 62.3%. In the case of O=C(Nc1ccc(S(=O)(=O)N2CCCCCC2)cc1)c1[nH]ncc1[N+](=O)[O-], the Potency is reported as inconclusive [inhibitor, partial curve]. With Cc1[nH]c2ccccc2c1Cc1n[nH]c(=S)n1C the “activity change, negative = inhibition” value was inactive: 14.8%. For COC(=O)c1ccc(NC(=O)CSc2nnc(Cc3cccn3C)n2-c2ccc(F)cc2)cc1, the Potency was inconclusive [inhibitor, single point]. In the case of COc1cccc(CC2(CO)CCCN(Cc3cn[nH]c3-c3cc(C)ccc3C)C2)c1 (stereo not drawn), the Potency is reported as inconclusive [inhibitor, single point]. In the case of O=C(OCC(=O)N1CCOCC1)c1ccc[nH]c1=O, the “activity change, negative = inhibition” value is reported as inactive: 22.3%. For COc1cc(SC)ccc1C(=O)Nc1c(C)cccc1C, the Potency was inconclusive [inhibitor, single point]. For COC(=O)C1=C(c2ccccc2OCc2ccccc2)C[C@@H]2CC[C@H]1N2C(=O)NCc1ccc(N(C)C)cc1, the Potency was active: 6.57 µM. With CCC1OC(=O)C[C@H](O)C(C)[C@@H](O[C@@H]2OC(C)C(O)C(N(C)C)C2O)C(CCN2CC(C)CC(C)C2)CC(C)C(=O)/C=C/C(C)=C\[C@@H]1COC1OC(C)C(O)C(OC)C1OC (stereo partly drawn) the Potency was inconclusive [inhibitor, partial curve]. For CC(=O)Nc1c(C(=O)O)oc2ccccc12, the “activity change, negative = inhibition” value was inactive: 96.5%. For CC1(C)Cc2c(C#N)c(N3CCN(C(=O)c4ccco4)CC3)nc(-c3ccco3)c2CS1, the Potency was active: 4.65 µM. In the case of COCC(C)N1C(=O)Cc2c1nc(N)c1c(N)nc(N3CCN(c4ccccc4F)CC3)c(C#N)c21 (stereo not drawn), the Potency is reported as active: 5.86 µM. For COc1ccc(OC)c(N(CC(=O)NCCSCc2ccco2)S(=O)(=O)c2ccccc2)c1, the Potency was inconclusive [inhibitor, single point]. In the case of CCOC(=O)CN1CC23C=CC(O2)C(C(=O)Nc2ccc(OC)cc2OC)C3C1=O (stereo not drawn), the “activity change, negative = inhibition” value is reported as inactive: 16.6%. For Cc1cccc(NC(=S)NCc2ccccc2Cl)c1C, the Potency was inconclusive [inhibitor, single point]. For COc1ccc2oc(C(=O)Nc3nc(-c4ccccn4)cs3)c(C)c2c1, the Potency was inconclusive [inhibitor, single point]. With CCOc1ccccc1CN1CCC(Oc2ccc(C(=O)NCc3ccccn3)cc2)CC1 the Potency was active: 10.4 µM. For CC(=O)N1CCN(c2ccc(NC(=O)c3ccc4c(c3)OCO4)cc2)CC1, the “activity change, negative = inhibition” value was inactive: 2.47%. With Cc1ccc(S(=O)(=O)Nc2cccc(C(=O)N3CCN(c4ccccc4O)CC3)c2)cc1F the Potency was active: 1.47 µM. In the case of CCCCN(C)CCNC(=O)C(=O)c1c(C)[nH]c2ccccc12, the Potency is reported as inconclusive [inhibitor, single point]. With COc1ccc(N2CCOCC2)c(NC(=O)c2cc3ccccc3o2)c1 the Potency was inconclusive [inhibitor, single point]. In the case of Cc1cc(=O)[nH]c(SCC(=O)N2CCCc3ccccc32)n1, the Potency is reported as inconclusive [inhibitor, single point]. With N=c1c(C(=O)NCc2ccco2)cc2c(=O)n3ccccc3nc2n1Cc1ccccc1 the Potency was inconclusive [inhibitor, single point]. With C/C(=C\c1ccc(F)cc1)C(=O)c1c(C)cc(C)[nH]c1=O the “activity change, negative = inhibition” value was inactive: -7.11%. With CC(Oc1ccccc1)C(=O)N=C1SC2CS(=O)(=O)CC2N1c1ccccc1 (stereo not drawn) the “activity change, negative = inhibition” value was inactive: -1.63%. With CNc1ccc(/C=C(\CCC(=O)O)c2nc3ccccc3s2)cc1[N+](=O)[O-] the “activity change, negative = inhibition” value was inactive: -12.1%. With CCC(=O)N(Cc1c(C)nn(-c2ccccc2)c1Cl)c1ccc(Cl)cc1 the Potency was active: 10.4 µM. With CC(C)Cc1ccccc1O the Potency was inconclusive [inhibitor, partial curve, poor fit]. For CC1=C(C(=O)OC2CCCCC2)C(c2cccnc2)n2ncnc2N1 (stereo not drawn), the Potency was inconclusive [inhibitor, single point]. In the case of Cc1cccc[n+]1CCCCCCCCCC[n+]1ccccc1C, the Potency is reported as inconclusive [inhibitor, full curve, poor fit]. With CCOC(=O)C1CCN(C(=O)c2cc3cc4cc(OC)ccc4nc3o2)CC1 the Potency was inconclusive [inhibitor, partial curve]. In the case of COc1ccc(C(=O)NC(NC(=S)Nc2ccc(S(N)(=O)=O)cc2)C(Cl)(Cl)Cl)cc1 (stereo not drawn), the Potency is reported as inconclusive [inhibitor, partial curve, poor fit]. For COc1ccc(C2NC(c3ccc(OC)cc3)C(C)C(=O)C2C)cc1 (stereo not drawn), the Potency was inconclusive [inhibitor, single point]. For COc1cccc(NC(=O)CN(C2=NC3CS(=O)(=O)CC3S2)c2cccc(C)c2)c1 (stereo not drawn), the Potency was inconclusive [inhibitor, single point]. With Fc1ccccc1N1CCN(CCCc2ccccc2)CC1 the “activity change, negative = inhibition” value was inactive: 0.294%. In the case of CC(=O)NC(c1cccs1)c1cc(F)c2cccnc2c1O (stereo not drawn), the Potency is reported as active: 5.22 µM and active: 2.94 µM. With O=C(c1ccc(-c2ccc(Cl)cc2)o1)N1CCN(c2ccc([N+](=O)[O-])cc2Cl)CC1 the Potency was inconclusive [inhibitor, single point]. For O=C(CSc1nc2sccc2c(=O)[nH]1)N1CCN(c2ccccc2)CC1, the Potency was inconclusive [inhibitor, partial curve]. With CCC(C)[C@H]1CN=C(N)N1CCc1cc(C(F)(F)F)cc(C(F)(F)F)c1 (stereo partly drawn) the Potency was active: 4.65 µM. For Cc1ccc(NS(=O)(=O)c2ccc(C(=O)N3CCCCCC3)cc2)cc1, the Potency was active: 10.4 µM. With CC(C)CN(CCCNC(=O)CN1C(=O)COc2ccc(S(=O)(=O)N3CCCCCC3)cc21)CC(C)C the Potency was inconclusive [inhibitor, partial curve].
